The supplement of paper PMC12217912
Some of the results follow. The full chains were built here from the parent and the listed change. Inactive controls read about 0.05.

B1: TEV protease; numbered along this chain (parent)
chain: MGESLFKGPRDYNPISSSICHLTNESDGHTTSLYGIGFGPFIITNKHLFRRNNGTLVVQSLHGVFKVKDTTTLQQHLVDGRDMIIIRMPKDFPPFPQKLKFREPQREERICLVTTNFQTKSMSSMVSDTSCTFPSGDGIFWKHWIQTKDGQCGSPLVSTRDGFIVGIHSASNFTNTNNYFTSVPKNFMELLTNQEAQQWVSGWRLNADSVLWGGHKVFMVKPEEPFQPVKEATQL

Variants of: B1
Test: raw area under fraction-flipped curve 0-4 h after induction (AUC4h, not background-subtracted), DNA-recorder readout of cleavage of the substrate (dimensionless); higher = more cleavage of the substrate by the protease variant
Settings: temperature: 34 °C; time window: 0-4 h after rhamnose induction
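Also: Bxb1 expression induced with 0.2% (w/v) L-rhamnose at OD600 near 0.5, cultures sampled hourly, flipped fraction per protease–substrate barcode pair counted by paired-end Illumina sequencing.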

**Q.** Which results are given for MGESLFKGPRDYNPISSSICHLTNESDGHTTSLYGIGFGPFIITNKHLFRRNNGTLVVQSLHGVFKVKDTTTLQQHLVDGRDMIIIRMPKDFPPFPQKLKFREPQREERICLVTTNFQTKSMSSMVSDTSCTFPSGDGIFWKHWIQTKDGQCGSPLVSTRDGVIVGIHSASNFTNTNNYFTSVPKNFMELLTNQEAQQWVSGWRLNADSVLWGGHKVFMVKPEEPFQPVKEATQL [F163V]?
**A.** area with substrate ENDYFQS: 0.0631; area with substrate ENEYFQS: 0.0644; area with substrate ENFYFQS: 0.0787; area with substrate ENKYFQS: 0.0653; area with substrate ENPYFQS: 0.0652; area with substrate ENQYFQS: 0.0724; area with substrate ENRYFQS: 0.0616; area with substrate ENSYFQS: 0.0538; area with substrate ENTYFQS: 0.0719

**Q.** With MGESLFKGPRDYNPISSSICHLTNESDGHTTSLYGIGFGPFIITNKHLFRRNNGTLVVQSLHGVFKVKDTTTLQQHLVDGRDMIIIRMPKDFPPFPQKLKFREPQREERICLVTTNFQTKSMSSMVSDTSCTFPSGDGIFWKHWDQTKDGQCGSPLVSTRDGFIVGIHSASNFTNTNNYFTSVPKNFMELLTNQEAQQWVSGWRLNADSVLWGGHKVFMVKPEEPFQPVKEATQL [I145D] as the variant, how does the “area with substrate ENDYFQS” value read?
**A.** The value was 0.0564.

**Q.** And the “area with substrate ENEYFQS” value?
**A.** Its value is 0.0516.

**Q.** What about the “area with substrate ENGYFQS” value of the same variant?
**A.** Its value is 0.0596.

**Q.** What about the “area with substrate ENHYFQS” value of the same variant?
**A.** The value was 0.0608.

**Q.** What about the “area with substrate ENMYFQS” value of the same variant?
**A.** The value was 0.045.

**Q.** And the “area with substrate ENQYFQS” value?
**A.** Its value is 0.056.

**Q.** And the “area with substrate ENSYFQS” value?
**A.** Its value is 0.0549.

**Q.** And the “area with substrate ENTYFQS” value?
**A.** Its value is 0.0617.

**Q.** What about the “area with substrate ENVYFQS” value of the same variant?
**A.** Its value is 0.0616.

**Q.** And the “area with substrate ENYYFQS” value?
**A.** The value was 0.0468.

**Q.** With MGESLFKGPRDYNPISSSICHLTNESDGHTTSLYGIGFGPFIITNKHLFDRNNGTLVVQSLHGVFKVKDTTTLQQHLVDGRDMIIIRMPKDFPPFPQKLKFREPQREERICLVTTNFQTKSMSSMVSDTSCTFPSGDGIFWKHWIQTKDGQCGSPLVSTRDGFIVGIHSASNFTNTNNYFTSVPKNFMELLTNQEAQQWVSGWRLNADSVLWGGHKVFMVKPEEPFQPVKEATQL [R50D] as the variant, how does the “area with substrate ENEYFQS” value read?
**A.** Its value is 0.0648.

**Q.** And the “area with substrate ENGYFQS” value?
**A.** Its value is 0.0653.

**Q.** What about the “area with substrate ENIYFQS” value of the same variant?
**A.** The value was 0.0866.

**Q.** What about the “area with substrate ENMYFQS” value of the same variant?
**A.** Its value is 0.0723.

**Q.** And the “area with substrate ENNYFQS” value?
**A.** The value was 0.0612.

**Q.** What about the “area with substrate ENQYFQS” value of the same variant?
**A.** Its value is 0.0533.

**Q.** What about the “area with substrate ENRYFQS” value of the same variant?
**A.** The value was 0.0425.

**Q.** And the “area with substrate ENSYFQS” value?
**A.** Its value is 0.0598.

**Q.** What about the “area with substrate ENVYFQS” value of the same variant?
**A.** Its value is 0.0704.

**Q.** With MGESLFKGPRDYNPISSSICHLTNESDGHTTSLYGIGFGPFIITNKHLFRRNNGTLVVQSLHGVFKVKDTTTLQQHLVDGRDMIIIRMPKDFPPFPQKLKFREPQREERICLVTTNFQTKSMSSMVSDTSCTFPSGDGIFWKHWIQTKDGQCGSPLVSTRDGFIVGIHSASNFTNTNNYFTSVPKNFMELLTNQEAQQWVSGWRLNADSVLWGGHKVFMVKPEEPFQPVKHATQL [E231H] as the variant, how does the “area with substrate ENDYFQS” value read?
**A.** Its value is 0.065.

**Q.** And the “area with substrate ENEYFQS” value?
**A.** Its value is 0.062.

**Q.** And the “area with substrate ENFYFQS” value?
**A.** Its value is 0.0389.

**Q.** And the “area with substrate ENGYFQS” value?
**A.** Its value is 0.08.

**Q.** What about the “area with substrate ENKYFQS” value of the same variant?
**A.** Its value is 0.0624.

**Q.** What about the “area with substrate ENNYFQS” value of the same variant?
**A.** The value was 0.0597.

**Q.** What about the “area with substrate ENQYFQS” value of the same variant?
**A.** Its value is 0.0577.

**Q.** And the “area with substrate ENSYFQS” value?
**A.** The value was 0.0504.

**Q.** And the “area with substrate ENTYFQS” value?
**A.** The value was 0.073.

**Q.** And the “area with substrate ENVYFQS” value?
**A.** The value was 0.0709.

**Q.** What about the “area with substrate ENYYFQS” value of the same variant?
**A.** The value was 0.0461.

**Q.** Which results are given for MGESLFKGPRDYNPISSSICHLTNESDGHTTSLYGIGFGPFIITNKHLFRRNNGTLVVQSLHGVFKVKDTTTLQQHLVDGRDMIIIRMPKDFPPFPQKLKFREPQRAERICLVTTNFQTKSMSSMVSDTSCTFPSGDGIFWKHWIQTKDGQCGSPLVSTRDGFIVGIHSASNFTNTNNYFTSVPKNFMELLTNQEAQQWVSGWRLNADSVLWGGHKVFMVKPEEPFQPVKEATQL [E107A]?
**A.** area with substrate ENEYFQS: 0.0768; area with substrate ENFYFQS: 0.0725; area with substrate ENGYFQS: 0.0411; area with substrate ENHYFQS: 0.0567; area with substrate ENNYFQS: 0.0592; area with substrate ENPYFQS: 0.0483; area with substrate ENQYFQS: 0.0593; area with substrate ENRYFQS: 0.0732; area with substrate ENSYFQS: 0.0571; area with substrate ENTYFQS: 0.0658; area with substrate ENVYFQS: 0.0706; area with substrate ENWYFQS: 0.0768

**Q.** Which “area with substrate ENDYFQS” value does the source give for MGESLFKGPRDYNPISSSICHLTNESDGHTTSLYGIGFGPFIITNKHLFRRNNGTLVVQSLHGVFKVKDTTTLQQHLVDGRDMIIIRMPKDFPPFPQKLKFREPQREERICLVTTNFQTKSMSSMVSDTSCTFPSGDGIFWKHWIQTKDGQCGSPLVSTRDGFIVGIHSASNFTNTNNYFTSVPKNFMELLTNQEAQQWVSGWRLNADSVLWGGHKAFMVKPEEPFQPVKEATQL [V217A] here?
**A.** The value was 0.0717.

**Q.** And the “area with substrate ENEYFQS” value?
**A.** Its value is 0.0581.

**Q.** And the “area with substrate ENGYFQS” value?
**A.** Its value is 0.0588.

**Q.** What about the “area with substrate ENHYFQS” value of the same variant?
**A.** The value was 0.0513.

**Q.** What about the “area with substrate ENQYFQS” value of the same variant?
**A.** Its value is 0.0503.

**Q.** What about the “area with substrate ENSYFQS” value of the same variant?
**A.** The value was 0.0547.

**Q.** And the “area with substrate ENVYFQS” value?
**A.** Its value is 0.0604.

**Q.** With MGESLFKGPRDYNPISSSICHLTNESDGHTTSLYGIGFGPFIITNKHLFRRNNGTLVVQSLHGVFKVKDTTTLQQHLVDGRDMIIIRMPKDFPPFPQKLKFREPQREERICLVTTNFQTKSMSSMVSDTSCTFPSGDGIFWKHWIQTKDGQCGSPLVSTRDGFIVGIHSASNFTNTNNYFTSVPKNFMELLTNQEAQQWVSGWRLNADSVLWGGHKVFMVKPEEPFQPVKEAKQL [T233K] as the variant, how does the “area with substrate ENDYFQS” value read?
**A.** The value was 0.0526.

**Q.** What about the “area with substrate ENEYFQS” value of the same variant?
**A.** Its value is 0.0626.

**Q.** And the “area with substrate ENFYFQS” value?
**A.** Its value is 0.0696.

**Q.** And the “area with substrate ENGYFQS” value?
**A.** Its value is 0.0526.

**Q.** And the “area with substrate ENHYFQS” value?
**A.** Its value is 0.0537.

**Q.** What about the “area with substrate ENKYFQS” value of the same variant?
**A.** Its value is 0.0572.

**Q.** What about the “area with substrate ENQYFQS” value of the same variant?
**A.** Its value is 0.0574.

**Q.** And the “area with substrate ENRYFQS” value?
**A.** The value was 0.073.

**Q.** What about the “area with substrate ENSYFQS” value of the same variant?
**A.** Its value is 0.0619.

**Q.** What about the “area with substrate ENTYFQS” value of the same variant?
**A.** The value was 0.0655.

**Q.** What about the “area with substrate ENVYFQS” value of the same variant?
**A.** The value was 0.0856.

**Q.** And the “area with substrate ENWYFQS” value?
**A.** The value was 0.0658.

**Q.** For MGESLFKGPRDYNPISSSICHLTNESDGHTTSLYGIGFGPFIITNKHLFRRNNGTLVVQSLHGVFKVKDTTTLQQHLVDGRDMIIIRMPKDFPPFPQKLKFREPQREERICLVTTNFQTKSMSSMVSDTSCTFPSGDGIKWKHWIQTKDGQCGSPLVSTRDGFIVGIHSASNFTNTNNYFTSVPKNFMELLTNQEAQQWVSGWRLNADSVLWGGHKVFMVKPEEPFQPVKEATQL [F140K], which “area with substrate ENDYFQS” value is on record?
**A.** Its value is 0.0762.

**Q.** And the “area with substrate ENEYFQS” value?
**A.** Its value is 0.059.

**Q.** What about the “area with substrate ENFYFQS” value of the same variant?
**A.** The value was 0.0493.

**Q.** What about the “area with substrate ENGYFQS” value of the same variant?
**A.** Its value is 0.0375.

**Q.** And the “area with substrate ENIYFQS” value?
**A.** The value was 0.0706.

**Q.** What about the “area with substrate ENPYFQS” value of the same variant?
**A.** Its value is 0.0607.

**Q.** And the “area with substrate ENQYFQS” value?
**A.** Its value is 0.0518.

**Q.** And the “area with substrate ENRYFQS” value?
**A.** Its value is 0.0511.

**Q.** And the “area with substrate ENVYFQS” value?
**A.** The value was 0.0564.
